# In PubChem BioAssay AID588342 (National Center for Advancing Translational Sciences (NCATS), 2011):
# “And” between values parts separate entries of the source, which are not always exact repeats. Equal values may be shown once. Screen size: about 360,000 compounds; about 25,000 (6.9%) were called active. The inconclusive results got no clear call from the source; some entries with a clear call stand among them for comparison. Calls come from the whole dose curve; as a rule, active = well fitted inhibition curve with a large enough effect; inconclusive = small, poorly fitted or top-dose-only effect; inactive = flat fitted curve, though single readings scatter. Potencies of inconclusive entries are doubtful fits and often do not repeat.
# Molecular target: Luciferin 4-monooxygenase (Photinus pyralis) (UniProt P08659)
# UniProt P08659, sequence (P08659 whole entry, looked up): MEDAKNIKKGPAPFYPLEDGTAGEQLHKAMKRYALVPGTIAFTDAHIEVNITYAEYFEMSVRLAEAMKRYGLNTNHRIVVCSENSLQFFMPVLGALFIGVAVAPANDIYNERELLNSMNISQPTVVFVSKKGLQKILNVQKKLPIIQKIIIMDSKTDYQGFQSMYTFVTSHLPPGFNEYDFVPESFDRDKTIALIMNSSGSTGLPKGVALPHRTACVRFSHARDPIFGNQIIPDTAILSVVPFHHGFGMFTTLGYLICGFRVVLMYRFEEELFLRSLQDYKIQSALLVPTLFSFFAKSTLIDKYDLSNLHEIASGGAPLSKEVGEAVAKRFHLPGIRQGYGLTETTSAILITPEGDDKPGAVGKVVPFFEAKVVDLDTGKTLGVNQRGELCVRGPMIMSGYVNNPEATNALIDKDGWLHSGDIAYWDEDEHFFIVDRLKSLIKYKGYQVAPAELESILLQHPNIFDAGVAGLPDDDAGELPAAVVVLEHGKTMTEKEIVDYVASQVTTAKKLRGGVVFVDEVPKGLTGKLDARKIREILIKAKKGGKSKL
# Experiment: qHTS profiling assay for firefly luciferase inhibitor/activator using purifed enzyme and Km concentrations of substrates (counterscreen for miR-21 project); note: nearly all actives have a fitted effect of over 55% in size
# Conditions: purified FLuc, luminescence inhibition; series mostly up to 57.5 µM
# Outline: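 Purified P. pyralis luciferase (10nM final) with 10uM D-luciferin and 10uM ATP (Km levels) in 50mM Tris acetate pH 7.5, 10mM Mg acetate, 0.01% Tween-20, 0.05% BSA; qHTS 6-point titration, ~60 µM downward; luminescence read.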
# Potency is the fitted concentration of half-maximal effect; tags give direction and shape of the fitted curve.
row,SMILES,Potency
1,CC1CCC(NC(=O)c2ccc(NC(=O)c3ccc(=O)[nH]c3)cc2)CC1 (centres undefined),inactive
2,COc1ccc2[nH]cc(/C=N/NS(=O)(=O)c3ccc(C)cc3)c2c1,"inconclusive: 37.9 µM [inhibitor, partial curve, poor fit]"
3,CC(C)c1ccc(CN(Cc2ccco2)c2cnc(S(C)(=O)=O)nc2C(=O)Nc2ccccc2)cc1,inactive
4,CCOc1ccc(-c2nc(C#N)c(NC3CC3)o2)cc1,active: 15.1 µM
5,O=C(Cn1c(=O)n(Cc2ccc(C(=O)NCc3ccc4c(c3)OCO4)cc2)c(=O)c2ccccc21)Nc1ccc(F)cc1F,inactive
6,Cc1ccc(N(C(=O)CNC(=O)c2ccco2)C(C(=O)NC2CCCC2)c2cccnc2)cc1F (centres undefined),inactive
7,Clc1ccccn1,inactive
8,Cc1ccc(NC(=O)CN(C)C(=O)c2cc(-c3ccccc3)nn2-c2ccccc2)cc1,inactive
9,CCc1cccc(C)c1NC(=O)c1cc(S(=O)(=O)N2CCC3(CC2)OCCO3)ccc1F,inactive
10,Cc1oc(-c2ccc(Cl)cc2)nc1CN1CCCC(C(=O)NCCc2ccccc2)C1 (centres undefined),"inconclusive: 37.9 µM [inhibitor, partial curve, poor fit]"
11,CCCc1nnc(NC(=O)CC(=O)Nc2ccccc2C(=O)O)s1,active: 19 µM
12,Cn1cc(Cl)c(C(=O)NC2CCCCCC2)n1,"inconclusive: 23.9 µM [inhibitor, partial curve, poor fit]"
13,CCOc1ccc(/C(O)=C2/C(=O)C(=O)N(CCN(CC)CC)C2c2cccs2)cc1 (centres undefined),"inconclusive: 37.9 µM [inhibitor, single point]"
14,O=C(NC(=S)Nc1cc(Cl)ccc1O)c1cccc(Br)c1,"inconclusive: 10.7 µM [inhibitor, partial curve, poor fit]"
15,O=C(Nc1cccc(C(=O)O)c1)/C(=C\c1ccccc1)NC(=O)c1cccc2ccccc12,active: 21.3 µM
16,CC(C)(C)C(=O)Nc1nc2nc(-c3ccccc3)cc(=O)n2[nH]1,"inconclusive: 19 µM [inhibitor, partial curve]"
17,CC(=O)NCCc1nc2cc(NC(=O)c3ccc(Cl)cc3)ccc2n1C,active: 8.49 µM
18,CCn1c2ccccc2c2cc(NC(=O)CCCN3C(=O)CCC3=O)ccc21,"inconclusive: 30.1 µM [inhibitor, partial curve, poor fit]"
19,NC(=O)c1cccnc1Nc1cccc(F)c1,inactive
20,CC1CCc2c(sc(NC(=O)c3cccs3)c2C(=O)O)C1 (centres undefined),active: 6.75 µM
21,O=C(CCC1CCCC1)NCc1cccs1,"inconclusive: 26.9 µM [inhibitor, partial curve, poor fit]"
22,COc1ccc(OCC(=O)N/N=C2\CCCc3ccccc32)cc1,active: 19 µM
23,Nc1nnc(SCC(=O)Nc2cc(C(F)(F)F)ccc2N2CCOCC2)s1,"inconclusive: 37.9 µM [inhibitor, partial curve, poor fit]"
24,COC(=O)c1cc(Cl)c(NC(=O)c2ccc(F)cc2)cc1OC,inactive
25,O=C(/C=C/c1ccccc1)Nc1ccc2c(c1)C(=O)NC2=O,"inconclusive: 5.36 µM [inhibitor, partial curve, poor fit]"

row,SMILES,Potency
1,N#Cc1cc2c(N)c(C(=O)Nc3ccccc3)sc2nc1N,"inconclusive: 16.9 µM [inhibitor, partial curve, poor fit]"
2,CCc1cc(C(=O)OC)c(NC(=O)CSc2nccn2C)s1,inactive
3,Cn1ncc2c(Nc3ccc(Cl)c(Cl)c3)ncnc21,"inconclusive: 37.9 µM [inhibitor, partial curve, poor fit]"
4,O=C(Nc1nnc(Cc2ccccc2)s1)c1ccco1,active: 16.9 µM
5,Cc1cc(=O)n2[nH]c(NCc3c(F)cccc3Cl)nc2n1,"inconclusive: 19 µM [inhibitor, partial curve, poor fit]"
6,CC(=O)c1ccc(NS(=O)(=O)c2cccc(C(=O)Nc3ccccc3C(=O)O)c2)cc1,inactive
7,COc1ccccc1CNC(=O)c1n[nH]c2ccccc12,"inconclusive: 19 µM [inhibitor, single point]"
8,Cc1cc(C)c(S(=O)(=O)Nc2cc(Cl)c3oc4c(c3c2)C(=O)CCC4)cc1C,inactive
9,O=C(CN1C(=O)S/C(=C/c2cccn2-c2ccc(O)cc2)C1=O)N1CCCC1,"inconclusive: 23.9 µM [inhibitor, single point]"
10,N/C(Cn1cncn1)=N\NC(=O)C(=O)Nc1ccc(Cl)cc1Cl,"inconclusive: 37.9 µM [inhibitor, single point]"
11,O=C(c1cnc2c(c1)COc1ccccc1-2)c1ccccc1O,"inconclusive: 26.9 µM [inhibitor, single point]"
12,CC(C)(C)NC(=O)CSc1nc(-c2ccc(F)cc2)cc(C(F)(F)F)n1,inactive
13,Cc1nc2c(-c3ccc(Cl)cc3)cnn2c2c1CCC2,"inconclusive: 6.01 µM [inhibitor, full curve]"
14,COc1ccc(N2CCN(C(=O)CSc3nnc(-c4cccnc4)n3-c3ccc(F)cc3)CC2)cc1,"inconclusive: 8.49 µM [inhibitor, partial curve, poor fit]"
15,CCN(CC)C(=O)C12CC3CC(CC(Br)(C3)C1)C2,inactive
16,CN(C)S(=O)(=O)c1ccc(/C(O)=C2/C(=O)C(=O)N(Cc3cccnc3)C2c2cccs2)cc1 (centres undefined),inactive
17,Cc1ccc(NC(=O)CN2CCC(C(=O)c3ccc4c(c3)OCCO4)CC2)cc1,inactive
18,CCCCOc1cccc(C(=O)N(Cc2ccc(Br)o2)C2CCS(=O)(=O)C2)c1 (centres undefined),inactive
19,Cc1cccc(C(=O)Nc2ccc(C(=O)OCc3cc(=O)n4c(C)csc4n3)cc2)c1,inactive
20,Cc1cccc2nc(CSc3nc4ccccc4[nH]3)cn12,"inconclusive: 23.9 µM [inhibitor, single point]"
21,CCOC(=O)c1sc(=S)n(-c2ccc(C)cc2)c1N,"inconclusive: 30.1 µM [inhibitor, partial curve, poor fit]"
22,COC(=O)c1ccc2nc(NC(=O)C(C)C)sc2c1,active: 8.49 µM
23,O=C(/C=C/c1c(Cl)cccc1Cl)NCCc1ccccc1,"inconclusive: 21.3 µM [inhibitor, partial curve, poor fit]"
24,COc1cc(/C=C(\C#N)C(=O)NCC2CCCO2)ccc1OC(C)C (centres undefined),"inconclusive: 23.9 µM [inhibitor, single point]"
25,N#CC1(NC(=O)COC(=O)c2ccc(-c3ccc(O)cc3)cc2)CCCCC1,"inconclusive: 37.9 µM [inhibitor, partial curve, poor fit]"

row,SMILES,Potency
1,CC(=O)c1ccc2c(c1)N(C)c1ccccc1S2,"inconclusive: 37.9 µM [inhibitor, single point]"
2,O=C(CNC(=O)c1sc2ccccc2c1Cl)NCc1ccc(F)cc1,"inconclusive: 8.49 µM [inhibitor, full curve, poor fit]"
3,CCC(C)(C)NC(=O)C(c1cccc(OC)c1OC)N(CCOC)C(=O)CCC(=O)Nc1cc(C)on1 (centres undefined),inactive
4,CCCOc1ccc(C(=O)CCC(=O)OC(C)C(=O)Nc2ccc(NC(C)=O)cc2)cc1 (centres undefined),"inconclusive: 21.3 µM [inhibitor, single point]"
5,CCn1cc(S(=O)(=O)c2cccc(Cl)c2)c(=O)c2cc(F)c(N3CCN(C)CC3)cc21,inactive
6,N/C(=N\OC(=O)Nc1ccc(Cl)cc1)c1ncc(C(F)(F)F)cc1Cl,"inconclusive: 33.8 µM [inhibitor, partial curve, poor fit]"
7,Cc1ccc2nc(-c3cccc(N)c3)[nH]c2c1,active: 0.953 µM
8,Cc1nc2ccc(NC(=O)Cc3c(F)cccc3Cl)cc2s1,active: 4.78 µM
9,C=CCOc1ccc(C(=O)NC2CCCCC2)cc1,active: 12 µM
10,CC(C)Cn1c(SCC(=O)Nc2cccc(S(N)(=O)=O)c2)nc2ccccc2c1=O,inactive
11,FC(F)Oc1ccc(NC(=S)N2CCc3ccccc32)cc1,"inconclusive: 13.5 µM [inhibitor, partial curve]"
12,Cc1ccc(NC(=O)c2cc(S(=O)(=O)N3CCCC3)cn2C)cc1C,"inconclusive: 23.9 µM [inhibitor, partial curve, poor fit]"
13,Clc1ccc(-n2ncc3c(NCCCn4ccnc4)ncnc32)cc1,active: 10.7 µM
14,C=C(C)COc1ccc(-c2[nH]ncc2Oc2ccc(OC)cc2)c(O)c1,"inconclusive: 37.9 µM [inhibitor, partial curve, poor fit]"
15,CCOc1cc(C(=O)CCC(=O)OCC(=O)Nc2ccc(F)cc2)ccc1O,"inconclusive: 30.1 µM [inhibitor, partial curve, poor fit]"
16,COc1ccc(CNC(=O)c2ccc(N(C)S(=O)(=O)c3ccc(C)cc3)cc2)cc1,inactive
17,COc1cc(Cl)c(C)cc1NC(=O)CCc1nc2cccnc2n1Cc1cccs1,inactive
18,COc1cc(/C=C/C(=O)OCC(=O)NCCc2ccc(S(N)(=O)=O)cc2)ccc1OCC#N,inactive
19,Cc1ccc(NCc2ccccc2F)cc1,"inconclusive: 23.9 µM [inhibitor, single point]"
20,O=C(NCc1ccc(F)cc1)N1CCc2ccccc2C1,"inconclusive: 37.9 µM [inhibitor, partial curve, poor fit]"
21,CS(=O)(=O)Nc1ccc([N+](=O)[O-])cc1Oc1ccccc1,"inconclusive: 30.1 µM [inhibitor, single point]"
22,Cc1cc(NS(=O)(=O)c2ccc(NC(=O)c3cc4cc(Br)ccc4oc3=O)cc2)no1,"inconclusive: 23.9 µM [inhibitor, single point]"
23,Cc1ccc(C(=O)NCc2ccco2)cc1S(=O)(=O)N1CCCCC1,inactive
24,Cc1cccc(C)c1OCC(=O)NC(Cc1c[nH]c2ccccc12)C(=O)O (centres undefined),"inconclusive: 13.5 µM [inhibitor, partial curve] and inconclusive: 19 µM [inhibitor, partial curve, poor fit]"
